Laboratory results published in PubChem BioAssay AID1645887 (National Center for Advancing Translational Sciences (NCATS), 2021).
Where “and” joins values, the source holds several entries; their conditions need not be identical. Equal entries are not always repeated. Out of some 16,000 compounds screened, about 40 (0.2%) were called active. About 1% were inconclusive and are not listed. The call rests on the fitted dose curve; in most records, active means well fitted activation curve with a large enough effect; inconclusive means small, poorly fitted or top-dose-only effect, or another doubt; inactive means no such curve, though single readings can be large or run the other way. This is one part of the list.

These compounds were tested against Rap guanine nucleotide exchange factor 4 (Homo sapiens) (UniProt Q8WZA2) (assay: Validation qHTS for agonist of cAMP-regulated guanine nucleotide exchange factor 4 (EPAC2)). Conditions: EPAC2 Rap1B BODIPY-GDP exchange, fluorescence; activation: stronger effect = higher value.
UniProt Q8WZA2, sequence (Q8WZA2 whole entry, looked up): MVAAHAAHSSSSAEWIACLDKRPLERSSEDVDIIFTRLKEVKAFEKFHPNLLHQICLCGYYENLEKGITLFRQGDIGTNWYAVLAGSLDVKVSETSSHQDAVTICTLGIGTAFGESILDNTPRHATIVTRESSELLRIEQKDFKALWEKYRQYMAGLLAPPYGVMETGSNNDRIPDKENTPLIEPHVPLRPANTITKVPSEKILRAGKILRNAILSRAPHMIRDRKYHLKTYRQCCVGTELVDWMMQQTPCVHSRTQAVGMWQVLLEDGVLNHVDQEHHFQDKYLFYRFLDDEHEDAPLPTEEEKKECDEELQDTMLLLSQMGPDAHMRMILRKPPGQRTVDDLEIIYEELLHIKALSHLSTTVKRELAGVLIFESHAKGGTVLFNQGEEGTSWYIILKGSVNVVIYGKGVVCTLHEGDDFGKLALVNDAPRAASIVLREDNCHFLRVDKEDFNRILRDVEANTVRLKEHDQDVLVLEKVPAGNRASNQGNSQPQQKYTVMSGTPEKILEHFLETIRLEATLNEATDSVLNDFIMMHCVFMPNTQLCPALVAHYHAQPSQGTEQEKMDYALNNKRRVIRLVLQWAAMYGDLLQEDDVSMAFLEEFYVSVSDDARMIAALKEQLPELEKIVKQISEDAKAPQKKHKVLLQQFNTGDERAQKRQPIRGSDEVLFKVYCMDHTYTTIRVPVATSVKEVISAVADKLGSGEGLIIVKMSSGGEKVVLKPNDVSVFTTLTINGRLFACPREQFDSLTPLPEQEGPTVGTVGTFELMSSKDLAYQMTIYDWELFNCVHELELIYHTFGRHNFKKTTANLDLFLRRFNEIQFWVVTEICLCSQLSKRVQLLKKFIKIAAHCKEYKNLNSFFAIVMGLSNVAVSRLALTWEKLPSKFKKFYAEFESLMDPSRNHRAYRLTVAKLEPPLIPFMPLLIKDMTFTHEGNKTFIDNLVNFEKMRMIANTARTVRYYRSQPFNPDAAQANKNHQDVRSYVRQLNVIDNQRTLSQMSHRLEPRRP
How it was run: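 Fluorescent exchange assay: 100 nM EPAC2 with 250 nM RAP1B-BODIPY-GDP and 50 uM GDP; compound added, 5 min at room temperature, then read (ex 480/em 540 nm) every 5 min for 30 min. Normalized to 6.5 mM cAMP agonist control.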
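Further: exchange makes BODIPY-GDP fluorescence drop when released from Rap1B; series mostly up to about 150 µM.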
On the % scale 0 is the no-effect control and ±100 the full control effect.

activation, inactive:
O=C1CS(=O)(=O)N(Cc2cccc(F)c2)c2ccc(Br)cc21 -8.76%
CCCn1c(=O)[nH]c(=O)c2[nH]cnc21 8.06% and -15.5%
COC(=O)Nc1nc2ccc(Sc3ccccc3)cc2[nH]1 -11.3% and -30.3%
C/C=C(\C)C(=O)NCCN1Cc2ccccc2OC(c2ccccc2OC)C1 (stereo not drawn) -0.335%
N#Cc1ccc(CN2CC3(CCN(C(=O)c4cccc(F)c4)CC3)C2)cc1 -6.9%
COc1ccc(NC(=O)N2CCC3(CC2)CCN(S(C)(=O)=O)CC3)cc1 -20.9%
CC(=O)c1ccc(F)c(-c2cc(C)cc3c2OC(CNC(=O)C[C@@H]2C[C@@H](C)NC(=S)N2)C3)c1 (stereo partly drawn) -13.4%
CCC1(C2CCN(C(=O)c3ccc4ccccc4c3)CC2)NC(=O)N(CCc2scnc2C)C1=O (stereo not drawn) -7.84%
CN1c2cc(O)c(N=NC(N)=O)cc2CC1S(=O)(=O)O (stereo not drawn) -7.36%
COc1cc(=O)n(C)c2c(OCC3OC(C)(C)OC3(C)C)cccc12 (stereo not drawn) -21.3%
C[N+](C)(C)CC=O -11%
N#Cc1cccc(-c2cc(NCc3cccnc3)ncn2)c1 5.48%
O=c1c(-c2ccc(Cl)cc2)nc2cncnc2n1Cc1ccc(F)cc1 -5.86%
O=C(Nc1ccc(Cl)cc1)Nc1ccc(Cl)c(C(F)(F)F)c1 22.9%
O=c1cc(-c2ccc(O)cc2O)oc2ccccc12 -6.9%
COc1ccc(F)c(CN2CCC3(CCC(CNC(=O)c4ccn(C)n4)O3)CC2)c1 (stereo not drawn) -1.52%
O=C(CN1Cc2ccccc2OC(c2ccsc2)C1)N1CCC(c2nc3ccccc3[nH]2)CC1 (stereo not drawn) 6.94%
OC[C@H]1O[C@@H](n2cnc3c(NC4CCCC4)ncnc32)[C@H](O)[C@@H]1O 4.21% and -19.4%
COc1ccc(/C=C/C(=O)c2ccc(O)cc2O)cc1 -10.7%
C1CCC(C(CC2CCCCN2)C2CCCCC2)CC1 (stereo not drawn) -39.2%
COCCn1c(=O)c(-c2ccc(OC)cc2)nc2cnc(N3CCNCC3)nc21 -5.32%
CC(C)N(c1ccc(C=O)cc1)C(C)C -3.34%
C[C@@H]1CN(Cc2ccc3c(c2)CN(Cc2cn[nH]c2-c2ccccc2)CCO3)C[C@H](C)O1 -5.28%
FC(F)(F)c1ccccc1-c1cncnc1NCCN1CCOCC1 -18.8%
COc1ccc(OC)c(CN2C[C@H](Sc3ccc(F)cc3)C[C@H]2C(=O)N(C)C)c1 -1.63%
CC(=O)NC(=O)c1ccccc1O -5.54%
COc1c2c(cc3c1C(c1c(O)c4ccccc4oc1=O)N(C)CC3)OCO2 (stereo not drawn) 7.81%
CC(=O)[C@@]1(O)CC[C@H]2[C@@H]3C[C@H](C)C4=CC(=O)C=C[C@]4(C)[C@@]3(F)[C@@H](O)C[C@@]21C -13.1%
CC(=O)Nc1ccc(OC(=O)c2ccccc2OC(C)=O)cc1 -5.36%
COc1cccc(-c2cc3c(c(OC)c2)OCCN(Cc2cccn2-c2ccccn2)C3)c1 -0.0456%
c1ccc2sc(SN3CCOCC3)nc2c1 19.1%
CCc1nc(N)nc(N)c1-c1ccc(Cl)cc1 -10.4% and 1.6%
N#Cc1cccc(-c2cc(-n3ccnc3)ncn2)c1 -15.1%
COC(=O)CCCOc1ccc(Cl)cc1Cl -0.799%
O=C(c1cccc(F)c1)N1CCC2(CCCN(c3ccccc3)C2)CC1 -8.63%
Cc1ncc2c(c1CNC(=O)c1ccc3c(c1)OCO3)CCN(C(=O)c1cc3ccccc3n1C)C2 -7.38%
O=C1C=C(O)c2ccccc2C1=O -13.2% and -14%
CC1=C2C(=CO[C@H](C)[C@H]2C)C(=O)C(C(=O)O)=C1O -14.1%
CC(C)NS(=O)(=O)c1cc(C(F)(F)F)ccc1/C=C/C(=O)O -26.4%
CC(=O)C[C@H]1c2ccccc2S(=O)(=O)N1C1CCCC1 -33.2%
COCCNc1ncnc2ccc(-c3ccc(C(=O)N(C)C)cc3)cc12 0.716%
O=C(NC1CC1)[C@@H]1C[C@@H](Sc2nc3ccccc3[nH]2)CN1CC1CCCCC1 -7.95%
CCNc1ncc2nc(-c3ccc(OC)cc3)c(=O)n(Cc3cccs3)c2n1 12.5%
CC(C)NCC(O)COc1ccc(CCOCC2CC2)cc1 (stereo not drawn) -12.8% and -10.4%
CCOC(=O)N1CCN(/[N+]([O-])=N/Oc2ccc([N+](=O)[O-])cc2[N+](=O)[O-])CC1 -27.3%
COc1cc(C(=O)NCc2ccc(OCCN(C)C)cc2)cc(OC)c1OC -1.68% and -0.128%
CCCN1CCCC[C@H]1C(=O)Nc1c(C)cccc1C -9.04%
COc1ccccc1CNc1ccnc(-c2ccccc2C(F)(F)F)n1 -4.86%
CSc1ncccc1C(=O)NCCN1Cc2ccccc2OC(c2ccccc2F)C1 (stereo not drawn) 9.49%
COc1cc(NCc2ccc3nc(N)nc(N)c3c2C)cc(OC)c1OC 13.5%
COc1cccc(-c2ccc3ncnc(NCc4ccccc4OC)c3c2)c1 -9.54%
Cc1ccc(S(=O)(=O)N[C@@H](Cc2ccccc2)C(=O)CCl)cc1 -7.27%
O=C(O)CCNC(=O)c1ccc(N=Nc2ccc(O)c(C(=O)O)c2)cc1 -22.5%
COc1ccccc1-c1nc(NCc2cccnc2)c2ccccc2n1 0.873%
O=C1[C@H]2[C@H](C=CC[C@H]2C(=O)N2CCOCC2)CCN1Cc1ccc(Cl)c(Cl)c1 -5.62%
COc1ccc2c(c1)OC/C(=C/c1ccc(OC)c(OC)c1)C2=O -5.31%
O=C(O)CCC(=O)OC[C@@H](NC(=O)C(Cl)Cl)C(O)c1ccc([N+](=O)[O-])cc1 (stereo partly drawn) -9.09%
COc1cccc2oc(-c3ccccc3)cc(=O)c12 1.44%
COCc1c(C(=O)N2CCN(C3CCCC3)CC2)cnn1-c1nccc(-c2cc(C)sc2C)n1 3.83%
O=CN1CCc2c([nH]c3ccccc23)C1c1cccc2cccnc12 (stereo not drawn) -5.23%
NC1CCN(c2cccc(Cl)n2)CC1 -21.3% and 1.96% and -19.9%
CC1C(=O)N(C)C(=O)c2nc[nH]c21 (stereo not drawn) -3.49%
CCSc1nnc(C(C)NS(=O)(=O)c2cccc(Cl)c2C)n1C (stereo not drawn) -7.43%
CCCCCCCCCCCCC/C=C/[C@@H](O)[C@H](CO)NCCCCCCCC -10.4%
CC1(C)C=Cc2c(cc3occ(-c4ccc5c(c4)OCO5)c(=O)c3c2O)O1 0.172%
O=c1cc(CO)occ1O -22.1% and -3.04% and 3.58%
CS(=O)(=O)Nc1cccc(-c2cncnc2Nc2ccccc2)c1 4.36%
COc1cccc(CN2CCC(n3cc(C(=O)NC4CCCC4)nn3)CC2)c1O -16.6%
COc1ccccc1CNc1nc(-c2ccc3c(c2)OCO3)nc2ccccc12 10.1%
CCNc1ncc2ncc(=O)n(Cc3cccs3)c2n1 6.24%
CC1(C)CC(C(=O)N2CCOc3ccc(CN4CCC(Oc5cccnc5)CC4)cc3C2)CCO1 (stereo not drawn) -8.93%
COc1cc(=O)n2c(c1C(=O)N(C)Cc1nonc1C)CCN(Cc1cccc3ccccc13)CC2 1.41%
C[N+]1(CC(=O)c2ccc(I)cc2)CCOCC1 -23.6%
CCCC1C(=O)N2C(N(C)C)=Nc3ccc(C)cc3N2C1=O (stereo not drawn) -4.7%
Clc1ccc(C(Cn2ccnc2)OCc2ccsc2Cl)c(Cl)c1 (stereo not drawn) 1.07%
CN(C)C(=O)c1ccc(-c2cncnc2NCc2cccs2)cc1 -19.8%
N[C@H]1CN(c2c(F)cc3c(=O)c(C(=O)O)cn(C4C[C@@H]4F)c3c2Cl)CC12CC2 (stereo partly drawn) -10.1%
CCNc1ncc2nc(-c3ccc(Cl)cc3)c(=O)n(-c3ccc(OC)cc3)c2n1 -19.6%
O=C(c1csnn1)N1CCC2(CC1)CN(C(c1ccccc1)c1ccccc1)C2 -16.5%
CC1(C)CCC(=O)N2CC[C@H]3C[C@H](OC(=O)Nc4ccc(Br)cc4)C[C@@H]1[C@H]32 -6.77%
c1cnc(N2CCN(Cc3ccc4c(c3)OCO4)CC2)nc1 -7.54% and 2.56% and -2.4%
c1nc(NC2CC2)c2cc(-c3ccoc3)ccc2n1 -16%
c1ccc(CNc2ncnc3ccc(-c4cccnc4)cc23)cc1 -9.08%
C/C(=C\CNc1ncnc2nc[nH]c12)CO 5.21%
C[C@](N)(Cc1ccc(O)c(O)c1)C(=O)O -14.6% and 5.13% and -20.3%
CCc1ncnc2cc(OC)c(OC)cc12 -1.63%
Cc1cc2c(c(-c3cnccn3)c1)OC(CNC(=O)C1CCCN(C)C1)C2 (stereo not drawn) -7.13%
COc1ccc(CNc2ccnc(-c3ccccc3OC)n2)c(OC)c1 5.27%
